In the supplement of paper PMC8728848:
The list shows a part of the results.

Assays:
Test in all cases: glycan array binding signal (z-score within array); higher = stronger binding
Details in all cases: glycan notation: IUPAC condensed, linker removed
Fuc(a1-2)Gal = target: Fuc(a1-2)Gal
Procedure, shortened: (§1)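 From the Consortium for Functional Glycomics database, 3228 arrays were curated, keeping only those whose protein sequence was available. Binding is given as a within-array Z-score averaged across arrays sharing a protein sequence and across linkers. Negative Z-scores can be read as non-binding.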

Fuc(a1-2)Gal(b1-3)GalNAc = target: Fuc(a1-2)Gal(b1-3)GalNAc
Procedure, shortened: as §1

[1] = target: Fuc(a1-2)Gal(b1-3)GalNAc(a1-3)[Fuc(a1-2)]Gal(b1-4)Glc
Procedure, shortened: as §1

[2] = target: Fuc(a1-2)Gal(b1-3)GalNAc(a1-3)[Fuc(a1-2)]Gal(b1-4)GlcNAc
Procedure, shortened: as §1

[3] = target: Fuc(a1-2)Gal(b1-3)GalNAc(b1-3)Gal
Procedure, shortened: as §1

[4] = target: Fuc(a1-2)Gal(b1-3)GalNAc(b1-3)Gal(a1-4)Gal(b1-4)Glc
Procedure, shortened: as §1

[5] = target: Fuc(a1-2)Gal(b1-3)GalNAc(b1-4)[Neu5Ac(a2-3)]Gal(b1-4)Glc
Procedure, shortened: as §1

Fuc(a1-2)Gal(b1-3)GlcNAc = target: Fuc(a1-2)Gal(b1-3)GlcNAc
Procedure, shortened: as §1

[6] = target: Fuc(a1-2)Gal(b1-3)GlcNAc(b1-2)Man(a1-3)[Fuc(a1-2)Gal(b1-3)GlcNAc(b1-2)Man(a1-6)]Man(b1-4)GlcNAc(b1-4)GlcNAc
Procedure, shortened: as §1

[7] = target: Fuc(a1-2)Gal(b1-3)GlcNAc(b1-2)Man(a1-3)[Fuc(a1-2)Gal(b1-3)GlcNAc(b1-2)Man(a1-6)]Man(b1-4)GlcNAc(b1-4)[Fuc(a1-6)]GlcNAc
Procedure, shortened: as §1

[8] = target: Fuc(a1-2)Gal(b1-3)GlcNAc(b1-3)Gal(b1-4)Glc
Procedure, shortened: as §1

[9] = target: Fuc(a1-2)Gal(b1-3)GlcNAc(b1-3)GalNAc
Procedure, shortened: as §1

[10] = target: Fuc(a1-2)Gal(b1-3)GlcNAc(b1-3)[Fuc(a1-2)Gal(b1-3)GlcNAc(b1-6)]GalNAc
Procedure, shortened: as §1

[11] = target: Fuc(a1-2)Gal(b1-3)GlcNAc(b1-3)[Gal(b1-4)GlcNAc(b1-6)]Gal(b1-4)Glc
Procedure, shortened: as §1

[12] = target: Fuc(a1-2)Gal(b1-3)GlcNAc(b1-3)[Neu5Ac(a2-6)Gal(b1-4)GlcNAc(b1-6)]Gal(b1-4)Glc
Procedure, shortened: as §1

[13] = target: Fuc(a1-2)Gal(b1-3)GlcNAc6S
Procedure, shortened: as §1

[14] = target: Fuc(a1-2)Gal(b1-3)[Fuc(a1-4)]GlcNAc
Procedure, shortened: as §1

[15] = target: Fuc(a1-2)Gal(b1-3)[Fuc(a1-4)]GlcNAc(b1-2)Man(a1-3)[Fuc(a1-2)Gal(b1-3)[Fuc(a1-4)]GlcNAc(b1-2)Man(a1-3)]Man(b1-4)GlcNAc(b1-4)GlcNAc
Procedure, shortened: as §1

[16] = target: Fuc(a1-2)Gal(b1-3)[Fuc(a1-4)]GlcNAc(b1-2)Man(a1-3)[Fuc(a1-2)Gal(b1-3)[Fuc(a1-4)]GlcNAc(b1-2)Man(a1-6)]Man(b1-4)GlcNAc(b1-4)[Fuc(a1-6)]GlcNAc(b1-4)[Fuc(a1-6)]GlcNAc
Procedure, shortened: as §1

[17] = target: Fuc(a1-2)Gal(b1-3)[Fuc(a1-4)]GlcNAc(b1-3)[Fuc(a1-3)[Gal(b1-4)]GlcNAc(b1-6)]Gal(b1-4)Glc
Procedure, shortened: as §1

[18] = target: Fuc(a1-2)Gal(b1-3)[Fuc(a1-4)]GlcNAc(b1-3)[Gal(b1-4)GlcNAc(b1-6)]Gal(b1-4)Glc
Procedure, shortened: as §1

[19] = target: Fuc(a1-2)Gal(b1-4)Fuc(a1-3)]GlcNAc(b1-2)Man(a1-3)[Fuc(a1-2)Gal(b1-4)[Fuc(a1-3)]GlcNAc(b1-2)Man(a1-6)]Man(b1-4)GlcNAc(b1-4)GlcNAc
Procedure, shortened: as §1

Fuc(a1-2)Gal(b1-4)Glc = target: Fuc(a1-2)Gal(b1-4)Glc
Procedure, shortened: as §1

Fuc(a1-2)Gal(b1-4)Glc6S = target: Fuc(a1-2)Gal(b1-4)Glc6S
Procedure, shortened: as §1

Fuc(a1-2)Gal(b1-4)GlcNAc = target: Fuc(a1-2)Gal(b1-4)GlcNAc
Procedure, shortened: as §1

[20] = target: Fuc(a1-2)Gal(b1-4)GlcNAc(b1-2)Man
Procedure, shortened: as §1

[21] = target: Fuc(a1-2)Gal(b1-4)GlcNAc(b1-2)Man(a1-3)[Fuc(a1-2)Gal(b1-4)GlcNAc(b1-2)Man(a1-6)]Man(b1-4)GlcNAc(b1-4)GlcNAc
Procedure, shortened: as §1

[22] = target: Fuc(a1-2)Gal(b1-4)GlcNAc(b1-2)Man(a1-3)[Fuc(a1-2)Gal(b1-4)GlcNAc(b1-2)Man(a1-6)]Man(b1-4)GlcNAc(b1-4)[Fuc(a1-6)]GlcNAc
Procedure, shortened: as §1

[23] = target: Fuc(a1-2)Gal(b1-4)GlcNAc(b1-2)[Fuc(a1-2)Gal(b1-4)GlcNAc(b1-4)]Man(a1-3)[Fuc(a1-2)Gal(b1-4)GlcNAc(b1-2)Man(a1-6)]Man(b1-4)GlcNAc(b1-4)GlcNAc
Procedure, shortened: as §1

[24] = target: Fuc(a1-2)Gal(b1-4)GlcNAc(b1-3)Gal(b1-4)GlcNAc
Procedure, shortened: as §1

[25] = target: Fuc(a1-2)Gal(b1-4)GlcNAc(b1-3)Gal(b1-4)GlcNAc(b1-2)Man(a1-3)[Fuc(a1-2)Gal(b1-4)GlcNAc(b1-3)Gal(b1-4)GlcNAc(b1-2)Man(a1-6)]Man(b1-4)GlcNAc(b1-4)GlcNAc
Procedure, shortened: as §1

[26] = target: Fuc(a1-2)Gal(b1-4)GlcNAc(b1-3)Gal(b1-4)GlcNAc(b1-3)Gal(b1-4)GlcNAc
Procedure, shortened: as §1

[27] = target: Fuc(a1-2)Gal(b1-4)GlcNAc(b1-3)GalNAc
Procedure, shortened: as §1

[28] = target: Fuc(a1-2)Gal(b1-4)GlcNAc(b1-3)[Fuc(a1-2)Gal(b1-4)GlcNAc(b1-6)]GalNAc
Procedure, shortened: as §1

[29] = target: Fuc(a1-2)Gal(b1-4)GlcNAc(b1-3)[Fuc(a1-3)[Gal(b1-4)]GlcNAc(b1-6)]Gal(b1-4)Glc
Procedure, shortened: as §1

[30] = target: Fuc(a1-2)Gal(b1-4)GlcNAc(b1-6)GalNAc
Procedure, shortened: as §1

[31] = target: Fuc(a1-2)Gal(b1-4)GlcNAc6S
Procedure, shortened: as §1

[32] = target: Fuc(a1-2)Gal(b1-4)[Fuc(a1-3)]GlcNAc
Procedure, shortened: as §1

[33] = target: Fuc(a1-2)Gal(b1-4)[Fuc(a1-3)]GlcNAc(b1-2)Man(a1-3)[Fuc(a1-2)Gal(b1-4)[Fuc(a1-3)]GlcNAc(b1-2)Man(a1-6)]Man(b1-4)GlcNAc(b1-4)[Fuc(a1-6)]GlcNAc
Procedure, shortened: as §1

[34] = target: Fuc(a1-2)Gal(b1-4)[Fuc(a1-3)]GlcNAc(b1-2)[Fuc(a1-2)Gal(b1-4)[Fuc(a1-3)]GlcNAc(b1-4)]Man(a1-3)[Fuc(a1-2)Gal(b1-4)[Fuc(a1-3)]GlcNAc(b1-2)Man(a1-6)]Man(b1-4)GlcNAc(b1-4)GlcNAc
Procedure, shortened: as §1

[35] = target: Fuc(a1-2)Gal(b1-4)[Fuc(a1-3)]GlcNAc(b1-3)Gal(b1-4)[Fuc(a1-3)]GlcNAc
Procedure, shortened: as §1

[36] = target: Fuc(a1-2)Gal(b1-4)[Fuc(a1-3)]GlcNAc(b1-3)Gal(b1-4)[Fuc(a1-3)]GlcNAc(b1-3)Gal(b1-4)[Fuc(a1-3)]GlcNAc
Procedure, shortened: as §1

[37] = target: Fuc(a1-2)Gal(b1-4)[Fuc(a1-3)]GlcNAc(b1-3)GalNAc
Procedure, shortened: as §1

[38] = target: Fuc(a1-2)Gal(b1-4)[Fuc(a1-3)]GlcNAc(b1-3)[Neu5Ac(a2-6)Gal(b1-4)GlcNAc(b1-6)]Gal(b1-4)Glc
Procedure, shortened: as §1

[39] = target: Fuc(a1-2)Gal3S(b1-4)GlcNAc
Procedure, shortened: as §1

B1: Epa6 (Candida glabrata), Q6DTM7_CANGB (protein)
chain: MGSSHHHHHHSSGLVPRGSHMKDDYSSSLSNNNLGWTDPTEFPLGCSPNVTTPKNGLSMELYSYDYLKSGSNPCWDAAYLDPNYPRTGYKSHRLLAKVENVAGNINFYYHAPMGCTSLFDTLPQAYNYRTPLTMTNFTMLLYGYFKPKVTGYHTFTISADDLLFVNFGAGNAFDCCKRESSADDFGNYQAYAVWGSQTAKDDLTVHLDAGLYYPIRIFFNNRDNDGALSLTLKTESDPNPVIDFSDYFYSFDDTKDGCPGLVSYDTS
- glycan array binding signal (z-score) (Fuc(a1-2)Gal): -0.308
- glycan array binding signal (z-score) (Fuc(a1-2)Gal(b1-3)GalNAc): -0.296
- glycan array binding signal (z-score) [1]: -0.322
- glycan array binding signal (z-score) [2]: 0.329
- glycan array binding signal (z-score) [3]: 0.066
- glycan array binding signal (z-score) [4]: -0.243
- glycan array binding signal (z-score) [5]: -0.155
- glycan array binding signal (z-score) (Fuc(a1-2)Gal(b1-3)GlcNAc): -0.259
- glycan array binding signal (z-score) [6]: -0.316
- glycan array binding signal (z-score) [7]: -0.32
- glycan array binding signal (z-score) [8]: -0.319
- glycan array binding signal (z-score) [9]: -0.299
- glycan array binding signal (z-score) [10]: -0.194
- glycan array binding signal (z-score) [11]: -0.184
- glycan array binding signal (z-score) [12]: -0.287
- glycan array binding signal (z-score) [13]: -0.274
- glycan array binding signal (z-score) [14]: -0.302
- glycan array binding signal (z-score) [15]: -0.229
- glycan array binding signal (z-score) [16]: -0.239
- glycan array binding signal (z-score) [17]: -0.282
- glycan array binding signal (z-score) [18]: -0.277
- glycan array binding signal (z-score) [19]: -0.112
- glycan array binding signal (z-score) (Fuc(a1-2)Gal(b1-4)Glc): -0.123
- glycan array binding signal (z-score) (Fuc(a1-2)Gal(b1-4)Glc6S): -0.267
- glycan array binding signal (z-score) (Fuc(a1-2)Gal(b1-4)GlcNAc): -0.322
- glycan array binding signal (z-score) [20]: -0.301
- glycan array binding signal (z-score) [21]: -0.269
- glycan array binding signal (z-score) [22]: -0.331
- glycan array binding signal (z-score) [23]: -0.318
- glycan array binding signal (z-score) [24]: -0.305
- glycan array binding signal (z-score) [25]: -0.242
- glycan array binding signal (z-score) [26]: -0.301
- glycan array binding signal (z-score) [27]: 1.78
- glycan array binding signal (z-score) [28]: -0.315
- glycan array binding signal (z-score) [29]: -0.279
- glycan array binding signal (z-score) [30]: -0.062
- glycan array binding signal (z-score) [31]: -0.268
- glycan array binding signal (z-score) [32]: -0.337
- glycan array binding signal (z-score) [33]: -0.257
- glycan array binding signal (z-score) [34]: -0.215
- glycan array binding signal (z-score) [35]: -0.275
- glycan array binding signal (z-score) [36]: -0.321
- glycan array binding signal (z-score) [37]: 0.022
- glycan array binding signal (z-score) [38]: -0.223
- glycan array binding signal (z-score) [39]: -0.298
